Test results as given in patent US5869450A, “Anti-inflammatory compositions and method with corticotropin-releasing factor analogs” (priority 1996, dated 1999).
For some of these results: At least one peptide structure holds a part that was inferred or is arguable (an end, a ring closure or a residue). For some of these results: At least one structure is not confirmed: it was looked up by name or label, or the drawing left a doubt. Non-standard residues stand in square brackets, D forms with d. No end group written: not given here.

Experiments:
[1] = tested on: heat-induced edema; assay: Suppression of heat-induced edema in the anesthetized rat hind paw; type: in vivo; conditions: for ED50 (95% CL) μg/kg i.v.: i.v. 10 min before 58° C. water for 1 minute, paw weight 30 min after heat, 95% CL in brackets
Method: The index of anti-inflammatory activity was measured as suppression by heat-induced edema. Briefly, male Sprague-Dawley rats weighing 200-250 g were anesthetized with sodium pentobarbital (60 mg/kg i.p.). Saline (1 ml/kg body weight) or test substances dissolved in saline were injected i.v. via a branch of the femoral vein. Ten minutes after injection, thermal stimulus was applied to the hind paw by immersion of the foot, up to the ankle joint, in 58° C. water for 1 minute. Thirty minutes after heat exposure, animals were killed by overdose with concentrated sodium pentobarbital and both hind paws were removed at the ankle joint and weighed. The degree of heat-induced edema was estimated as the difference between the weights of the heated and unheated paws divided by the weight of the unheated paw. Four to six analogs (N≥3 animals per dose level with 3 to 4 dose levels per analog) were tested on each occasion with concurrent saline controls. The median effective dose (ED50) was calculated according to the method of Litchfield and Wilcoxon (1949).

[2] = biological target: T1, CRF-R1 (Rattus norvegicus, UniProt P35353); assay: cAMP stimulation in 293-EBNA cells transfected with CRF-R1 (PC-CRF receptor); type: cell-based
T1 construct: Cells were transfected with the full-length cDNA of these receptors; expressed in transfected cells
T1 sequence (P35353 24-415): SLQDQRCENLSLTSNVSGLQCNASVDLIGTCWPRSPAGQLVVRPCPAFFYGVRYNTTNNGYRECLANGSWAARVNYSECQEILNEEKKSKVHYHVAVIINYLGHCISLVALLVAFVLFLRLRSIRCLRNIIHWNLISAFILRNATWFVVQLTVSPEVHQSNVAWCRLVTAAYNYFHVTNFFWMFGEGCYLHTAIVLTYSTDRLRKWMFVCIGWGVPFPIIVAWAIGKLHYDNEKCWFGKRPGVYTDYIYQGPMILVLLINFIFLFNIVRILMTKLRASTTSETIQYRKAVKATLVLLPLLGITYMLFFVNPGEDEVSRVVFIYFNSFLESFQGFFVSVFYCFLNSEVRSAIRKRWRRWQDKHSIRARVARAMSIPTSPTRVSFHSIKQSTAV

[3] = tested on: heat-induced edema; conditions: intravenous; Wei and Kiang 1989; cited from earlier work
[4] = Table 2, cAMP, 293-EBNA stable transfectants

Compound	ED50 (95% CL) μg/kg i.v. [1]	other results
CC[C@H](C)[C@H](NC(=O)[C@H](CO)NC(=O)[C@H](CC(C)C)NC(=O)[C@H]1CCCN1C(=O)[C@@H]1CCCN1C(=O)[C@H](CC(=O)O)NC(=O)[C@@H](N)CC(=O)O)C(=O)N[C@@H](CC(=O)O)C(=O)N[C@@H](CC(C)C)C(=O)N[C@H](C(=O)N[C@@H](Cc1ccccc1)C(=O)N[C@@H](Cc1c[nH]cn1)C(=O)N[C@@H](CC(C)C)C(=O)N[C@@H](CC(C)C)C(=O)N[C@@H](CCCNC(=N)N)C(=O)N[C@H](C(=O)N[C@@H](CC(C)C)C(=O)N[C@@H](CC(C)C)C(=O)N[C@@H](CCC(=O)O)C(=O)N[C@@H](CC(C)C)C(=O)N[C@@H](C)C(=O)N[C@@H](CCCNC(=N)N)C(=O)N[C@H](C(=O)N[C@@H](CCC(N)=O)C(=O)N[C@@H](CO)C(=O)N[C@@H](CCC(N)=O)C(=O)N[C@@H](CCCNC(=N)N)C(=O)N[C@@H](CCC(=O)O)C(=O)N[C@@H](CCCNC(=N)N)C(=O)N[C@@H](C)C(=O)N[C@@H](CCC(=O)O)C(=O)N[C@@H](CCC(N)=O)C(=O)N[C@@H](CC(N)=O)C(=O)N[C@@H](CCCNC(=N)N)C(=O)N[C@H](C(=O)N[C@H](C(=O)N[C@@H](Cc1ccccc1)C(=O)N[C@@H](CC(=O)O)C(=O)N[C@@H](CO)C(=O)N[C@H](C(N)=O)C(C)C)[C@@H](C)CC)[C@@H](C)CC)[C@@H](C)O)[C@@H](C)O)[C@@H](C)O [[D-Pro^4]urocortin (rat)]	6 (2-16) μg/kg	
CC[C@H](C)[C@H](NC(=O)[C@H](CO)NC(=O)[C@H](CC(C)C)NC(=O)[C@@H]1CCCN1C(=O)[C@@H]1CCCN1C(=O)[C@H](CC(=O)O)NC(=O)[C@@H](N)CC(=O)O)C(=O)N[C@@H](CC(=O)O)C(=O)N[C@@H](CC(C)C)C(=O)N[C@H](C(=O)N[C@@H](Cc1ccccc1)C(=O)N[C@@H](Cc1c[nH]cn1)C(=O)N[C@@H](CC(C)C)C(=O)N[C@@H](CC(C)C)C(=O)N[C@@H](CCCNC(=N)N)C(=O)N[C@H](C(=O)N[C@@H](CC(C)C)C(=O)N[C@@H](CC(C)C)C(=O)N[C@@H](CCC(=O)O)C(=O)N[C@@H](CC(C)C)C(=O)N[C@@H](C)C(=O)N[C@@H](CCCNC(=N)N)C(=O)N[C@H](C(=O)N[C@@H](CCC(N)=O)C(=O)N[C@@H](CO)C(=O)N[C@@H](CCC(N)=O)C(=O)N[C@@H](CCCNC(=N)N)C(=O)N[C@@H](CCC(=O)O)C(=O)N[C@@H](CCCNC(=N)N)C(=O)N[C@@H](C)C(=O)N[C@@H](CCC(=O)O)C(=O)N[C@@H](CCC(N)=O)C(=O)N[C@@H](CC(N)=O)C(=O)N[C@@H](CCCNC(=N)N)C(=O)N[C@H](C(=O)N[C@H](C(=O)N[C@@H](Cc1ccccc1)C(=O)N[C@@H](CC(=O)O)C(=O)N[C@@H](CO)C(=O)N[C@H](C(N)=O)C(C)C)[C@@H](C)CC)[C@@H](C)CC)[C@@H](C)O)[C@@H](C)O)[C@@H](C)O [urocortin (rat), reference compound]	7 (2-21) μg/kg	
NDDPPISIDLTFHLLRNMIEMARIENEREQAGLNRKYLDEV-NH2 (C-terminus assumed) [white sucker fish urotensin I, reference compound]		EC50 [2, 4]: 0.5 nM
CC[C@H](C)[C@H](NC(=O)[C@H](CC(=O)O)NC(=O)[C@H](CC(C)C)NC(=O)[C@H](CC(C)C)NC(=O)[C@H](CCCCN)NC(=O)[C@H](CCCNC(=N)N)NC(=O)[C@H](CC(N)=O)NC(=O)[C@H](CO)NC(=O)[C@H](Cc1c[nH]cn1)NC(=O)[C@H](C)NC(=O)[C@H](CCC(N)=O)NC(=O)[C@H](CCC(N)=O)NC(=O)[C@H](C)NC(=O)[C@H](CC(C)C)NC(=O)[C@H](CCC(N)=O)NC(=O)[C@H](CC(=O)O)NC(=O)[C@H](C)NC(=O)[C@H](CCCCN)NC(=O)[C@@H](NC(=O)[C@H](CCSC)NC(=O)[C@H](CCC(=O)O)NC(=O)[C@H](CC(C)C)NC(=O)[C@@H](NC(=O)[C@H](CCC(=O)O)NC(=O)[C@H](CCCNC(=N)N)NC(=O)[C@H](CC(C)C)NC(=O)[C@H](CC(C)C)NC(=O)[C@H](Cc1c[nH]cn1)NC(=O)[C@H](Cc1ccccc1)NC(=O)[C@@H](NC(=O)[C@H](CC(C)C)NC(=O)[C@H](CC(=O)O)NC(=O)[C@H](CC(C)C)NC(=O)[C@H](CO)NC(=O)[C@@H](NC(=O)[C@@H]1CCCN1C(=O)[C@@H]1CCCN1C(=O)[C@H](CCC(=O)O)NC(=O)[C@H](CCC(N)=O)NC(=O)[C@@H](N)CO)[C@@H](C)CC)[C@@H](C)O)C(C)C)[C@@H](C)O)C(=O)N[C@@H](C)C(N)=O [oCRF, reference compound]	37 (18-79) μg/kg	
SEEP[dP]ISLDLTFHLLREVLEMTKADQLAQQAHSNRKLMEII-NH2 [[D-Pro^5, Thr^22, Lys^23, Asp^25]h/rCRF]		EC50 ([2]; Table 3): 1.5 nM
CC[C@H](C)[C@H](NC(=O)[C@@H](NC(=O)[C@H](CCC(=O)O)NC(=O)[C@H](CCSC)NC(=O)[C@H](CC(C)C)NC(=O)[C@H](CCCCN)NC(=O)[C@H](CCCNC(=N)N)NC(=O)[C@H](CC(N)=O)NC(=O)[C@H](CO)NC(=O)[C@H](Cc1c[nH]cn1)NC(=O)[C@H](C)NC(=O)[C@H](CCC(N)=O)NC(=O)[C@H](CCC(N)=O)NC(=O)[C@H](C)NC(=O)[C@H](CC(C)C)NC(=O)[C@H](CCC(N)=O)NC(=O)[C@H](CCC(=O)O)NC(=O)[C@H](C)NC(=O)[C@H](CCCNC(=N)N)NC(=O)[C@H](C)NC(=O)[C@H](CCSC)NC(=O)[C@H](CCC(=O)O)NC(=O)[C@H](CC(C)C)NC(=O)[C@@H](NC(=O)[C@H](CCC(=O)O)NC(=O)[C@H](CCCNC(=N)N)NC(=O)[C@H](CC(C)C)NC(=O)[C@H](CC(C)C)NC(=O)[C@H](Cc1c[nH]cn1)NC(=O)[C@H](Cc1ccccc1)NC(=O)[C@@H](NC(=O)[C@H](CC(C)C)NC(=O)[C@H](CC(=O)O)NC(=O)[C@H](CC(C)C)NC(=O)[C@H](CO)NC(=O)[C@@H](NC(=O)[C@@H]1CCCN1C(=O)[C@@H]1CCCN1C(=O)[C@H](CCC(=O)O)NC(=O)[C@H](CCC(=O)O)NC(=O)[C@@H](N)CO)[C@@H](C)CC)[C@@H](C)O)C(C)C)[C@@H](C)CC)C(N)=O [h/rCRF, reference compound]	10 (3-28) μg/kg	ED50 for suppression of heat-induced edema in the rat [3]: 5.9 nmol/kg
NDDP[dP]ISIDLTFHLLRNMIEMARIENEREQAGLNRKYLDEV-NH2 [[D-Pro^5]white sucker fish urotensin I]		EC50 [2, 4]: 0.4 nM
CC[C@H](C)[C@H](NC(=O)[C@H](CC(=O)O)NC(=O)[C@H](CC(C)C)NC(=O)[C@H](CC(C)C)NC(=O)[C@H](CCCCN)NC(=O)[C@H](CCCNC(=N)N)NC(=O)[C@H](CC(N)=O)NC(=O)[C@H](CO)NC(=O)[C@H](Cc1c[nH]cn1)NC(=O)[C@H](C)NC(=O)[C@H](CCC(N)=O)NC(=O)[C@H](CCC(N)=O)NC(=O)[C@H](C)NC(=O)[C@H](CC(C)C)NC(=O)[C@H](CCC(N)=O)NC(=O)[C@H](CC(=O)O)NC(=O)[C@H](C)NC(=O)[C@H](CCCCN)NC(=O)[C@@H](NC(=O)[C@H](CCSC)NC(=O)[C@H](CCC(=O)O)NC(=O)[C@H](CC(C)C)NC(=O)[C@@H](NC(=O)[C@H](CCC(=O)O)NC(=O)[C@H](CCCNC(=N)N)NC(=O)[C@H](CC(C)C)NC(=O)[C@H](CC(C)C)NC(=O)[C@H](Cc1c[nH]cn1)NC(=O)[C@H](Cc1ccccc1)NC(=O)[C@@H](NC(=O)[C@H](CC(C)C)NC(=O)[C@H](CC(=O)O)NC(=O)[C@H](CC(C)C)NC(=O)[C@H](CO)NC(=O)[C@@H](NC(=O)[C@H]1CCCN1C(=O)[C@@H]1CCCN1C(=O)[C@H](CCC(=O)O)NC(=O)[C@H](CCC(N)=O)NC(=O)[C@@H](N)CO)[C@@H](C)CC)[C@@H](C)O)C(C)C)[C@@H](C)O)C(=O)N[C@@H](C)C(N)=O [[D-Pro^5]oCRF]	19 (5-26) μg/kg	anti-edema / anti-inflammatory potency compared with the unmodified peptide ([1]; suppression of heat-edema): at least equipotent to unmodified oCRF
